Hit rate of the full screen: of about 110,000 compounds, about 230 (0.21%) showed an effect of 50% or more. This is one part of the list.
The compounds below were run against DPAP1 (Plasmodium falciparum, UniProt Q8IIJ9) (assay: primary screen, percent inhibition; read by cleavage of a fluorogenic dipeptide substrate; higher = more effect of the substance).
Parameters: species or system P. falciparum D10 trophozoite lysates; single well
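Also: 30 min substrate incubation versus DMSO and 10 µM JCP410 controls.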

Chain of DPAP1 (Q8IIJ9 whole entry, looked up): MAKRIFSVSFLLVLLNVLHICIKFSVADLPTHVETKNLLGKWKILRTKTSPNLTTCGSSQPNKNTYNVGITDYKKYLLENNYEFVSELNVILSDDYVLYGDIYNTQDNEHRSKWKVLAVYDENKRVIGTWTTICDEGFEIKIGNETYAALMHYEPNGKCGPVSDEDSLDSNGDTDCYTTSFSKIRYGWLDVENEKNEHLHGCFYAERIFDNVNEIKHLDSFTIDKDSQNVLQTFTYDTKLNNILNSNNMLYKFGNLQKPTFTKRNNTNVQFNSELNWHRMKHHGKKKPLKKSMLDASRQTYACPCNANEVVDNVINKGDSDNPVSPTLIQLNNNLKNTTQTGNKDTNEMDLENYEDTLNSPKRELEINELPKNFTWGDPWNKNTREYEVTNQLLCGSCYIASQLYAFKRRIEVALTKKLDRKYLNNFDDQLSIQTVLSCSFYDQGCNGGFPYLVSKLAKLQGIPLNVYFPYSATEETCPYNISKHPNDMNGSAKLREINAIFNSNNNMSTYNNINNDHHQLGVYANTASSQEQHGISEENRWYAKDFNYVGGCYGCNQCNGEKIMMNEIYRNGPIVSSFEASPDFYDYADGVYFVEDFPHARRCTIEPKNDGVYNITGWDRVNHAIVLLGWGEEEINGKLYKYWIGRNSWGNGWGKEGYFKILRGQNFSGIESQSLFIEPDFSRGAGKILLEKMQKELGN

Row | SMILES | % Inhibition @ 10 uM [%]
1 | COc1cccc2sc(N(CCCN(C)C)C(=O)c3cccc(C(F)(F)F)c3)nc12 | -0.808
2 | O=C(O)C1=C(c2cc([N+](=O)[O-])ccc2O)N=S=N1 | 0.215
3 | CCC(C(=O)NCc1ccco1)n1nc(-c2ccc(OC)cc2)ccc1=O (stereo not shown) | -8.34
4 | Cc1oc(-c2ccc(Cl)cc2)nc1CS(=O)CC(=O)NCCCN(C)C1CCCCC1 (stereo not shown) | -4.71
5 | Cc1ccccc1NC(=O)c1c(Cl)c(C)nn1C | -6.34
6 | COc1ccc(C(Nc2cc(C)ccn2)c2ccc3cccnc3c2O)c(OC)c1OC (stereo not shown) | -4.51
7 | CC(C)OCCCNC(=O)c1ccc(CS(=O)Cc2ccc(Cl)cc2)o1 (stereo not shown) | 0.124
8 | C[C@H](C[C@H](NC(=O)c1ccc(-c2ccccc2Cl)cc1)C(=O)N[C@H](/C=C/S(=O)(=O)c1ccccc1)CCc1ccc(O)cc1)c1ccccc1 | -0.207
9 | C=CCOc1c(Br)cc(CNc2nccs2)cc1OC | 0.145
10 | Cc1ccc(Cl)cc1-c1ccc(/C=C2/NC(=O)NC2=O)o1 | 5.17
11 | O=C(N[C@@H](CCc1ccccc1)C(=O)c1nc2ccccc2o1)[C@H](CS(=O)(=O)Cc1ccccc1[N+](=O)[O-])NC(=O)N1CCOCC1 | -5.21
12 | CC(C)OC(=O)C(C)Nc1ccc(F)c(Cl)c1 (stereo not shown) | -1.77
13 | O=C1NC(c2ccccc2)Nc2c1sc(=S)n2-c1ccccc1 (stereo not shown) | 0.0538
14 | O=S(=O)(NCc1ccccc1)c1cccc(S(=O)(=O)c2ccc(Cl)c(Cl)c2)c1 | 6.31
15 | CC1=CC(C)(C)N(CC(=O)c2ccc([N+](=O)[O-])cc2)c2ccc(C)cc21 | -2.51
16 | CCN1C(=O)NC(c2ccccc2Cl)C(C(=O)OC2CCCCC2)=C1C (stereo not shown) | -2.6
17 | c1cnc(N2CCN(c3ncnc4c3nc3n4CCCCC3)CC2)nc1 | 1.51
18 | Cc1cccc(C(=O)N(Cc2ccco2)C2CCS(=O)(=O)C2)c1 (stereo not shown) | 0.569
19 | O=C(Nc1ccc(F)cc1F)c1cccc([N+](=O)[O-])c1 | -1.48
20 | Cc1c(C(=O)NC2CCCc3ccccc32)sc2nc3n(c(=O)c12)CCCCC3 (stereo not shown) | 5.82
21 | Cc1nnn(C23CC4CC(CC(C(=O)N5CCN(c6ccccn6)CC5)(C4)C2)C3)n1 | 1.49

Row | SMILES | % Inhibition @ 10 uM [%]
22 | COc1ccc(/C=C(/NC(=O)c2ccccc2)C(=O)NCc2ccccc2)cc1 | -3.26
23 | COc1ccccc1N/C=C1/C(=O)NC(=O)N(c2ccccc2)C1=O | -1.22
24 | Cc1ccc(CN(C)Cc2ccccc2)o1 | 1.62
25 | O=c1c(CN2CCN(c3ccc(F)cc3)CC2)coc2ccc(Cl)cc12 | -1.42
26 | CCCOc1ccc(N2CC(C(=O)Nc3ccc(N4CCOCC4)cc3)CC2=O)cc1 (stereo not shown) | -5.35
27 | CCCCOc1ccc(C(=O)Nc2ccc(N3CCN(C(=O)c4ccco4)CC3)cc2)cc1 | -4.12
28 | COc1ccc(OC)c(C2CC(=O)N3C(=C2C#N)SCC3(O)c2ccc(OC)c(OC)c2)c1 (stereo not shown) | -1.74
29 | Cc1[nH]c(-c2ccc(F)cc2)cc1C(=O)NCCCN1CCN(C2CCCCC2)CC1 | -1.87
30 | O=C(NCCCn1ccnc1)C1CC(c2cccc(Br)c2)=NO1 (stereo not shown) | 1.91
31 | Cc1cc(-c2nc(-c3ccc(C(F)(F)F)cc3)no2)c2ccccc2n1 | 3.68
32 | COC(=O)c1ccc(C(=O)Nc2nc3c(s2)CCc2ccccc2-3)cc1 | 17.1
33 | CC1CCCN(C(=O)c2cc(-c3ccccc3)[nH]n2)C1 (stereo not shown) | 1.24
34 | C=CCSC1=C(C#N)C(c2ccccc2OC)CC(=O)N1 (stereo not shown) | -8.36
35 | CCOC(=O)c1c(NS(=O)(=O)c2ccc([N+](=O)[O-])cc2)sc2c1CCCC2 | -6.99
36 | CCC(=O)n1nc(-c2cccnc2)nc1NCc1ccc(OC)cc1 | -6.64
37 | O=C1C(=O)N(Cc2ccccc2Cl)c2ccccc21 | -0.366
38 | COCCN1C(=O)C(O)=C(C(=O)c2ccc(OC)cc2C)C1c1ccccc1 (stereo not shown) | 5.14
39 | COc1ccc(NC2=C(Cl)C(=O)N(c3ccccc3C)C2=O)cc1 | -4.6
40 | Cc1cccc(C)c1NC(=O)C1(NC(=O)CN2C(=O)c3ccccc3C2=O)CCCC1 | -4.02
41 | CC(=O)c1ccc(NC(=O)c2ccc(Cl)cc2)cc1 | -5.28
42 | Cc1ccc2nc(O)c(CN(C)C(=O)c3cccc(Cl)c3)cc2c1 | 5.7

Row | SMILES | % Inhibition @ 10 uM [%]
43 | CCN1CCC(N2CCC(O)(c3ccc(Br)cc3)CC2)CC1 | 1.57
44 | O=C(CCc1ccccc1)ON=C1CCC(c2ccccc2)CC1 (stereo not shown) | 1.13
45 | CCOc1ccc(CCNC(=O)C2CCN(c3nn4c(=O)cc(C)nc4s3)CC2)cc1 | 3
46 | CC(C)C(=O)n1nc(-c2ccc(Cl)cc2)nc1NCc1ccco1 | 0.628
47 | Cc1cc(Cl)ccc1OCCSc1nc(-c2ccccc2)nc2cc(=O)[nH]n12 | -3.22
48 | Fc1ccccc1N1CCN(Cc2ccccc2Br)CC1 | -2.56
49 | Cc1csc2ncc(C(=O)NCc3cccs3)c(=O)n12 | -0.499
50 | N#CCNC(=O)C(CC1CCCCC1)C(=O)NCc1cccc2ccccc12 (stereo not shown) | -1.83
51 | Cc1noc(/C=C/N2CCOCC2)c1S(=O)(=O)N(C)CCc1ccc(Cl)cc1 | 10.3
52 | C[C@@H](O)[C@@H](NC(=O)OCc1ccccc1)C(=O)NCC#N | -3.14
53 | CCN(CC)c1ccc(NC(=O)c2ccccc2OC)cc1 | 38
54 | Cc1cc(/C=C2\C(=N)N3N=C(N4CCCC4)SC3=NC2=O)c(C)n1-c1ccc(F)cc1 | 4.88
55 | C=CCc1ccccc1OCC(O)CN1CCN(C(=O)OCC)CC1 (stereo not shown) | 7.75
56 | Cc1ccc(OCC(=O)Nc2nc(-c3ccc(F)cc3F)cs2)cc1 | 2.44
57 | O=c1oc2ccc([N+](=O)[O-])cc2c2nsnc12 | 3.01
58 | CCNC(=O)c1ccc(CSc2nc3ccncc3n2Cc2ccc(C)cc2)cc1 | 7.2
59 | C=CCNC(=O)C(=O)NC1CCCCC1 | -0.446
60 | COc1cccc2c1cc1c(=O)n(CC(=O)N3CCN(C4CCCCC4)CC3)nc(C)n12 | 4.84
61 | Cc1nc2nc(C)c(CCC(=O)N3CCC(Cc4ccccc4)CC3)c(C)n2n1 | -4.1

Source: article PMC6919601, “Identification of Plasmodium dipeptidyl aminopeptidase allosteric inhibitors by high throughput screening” (PLoS ONE, 2019)
